Experimental data published in patent US20100260668A1 (published 2010).

Experiments:
[1] = target: NRP1 (Neuropilin-1 Npn-1-His tag) (UniProt O14786-2 22-644); assay: SPR (Biacore); N-terminal VD
PlGF (Placental GF) [2] = target: T1, PlGF (Placental GF) (UniProt P49763-2 21-149, limits assumed); assay: SPR (Biacore); C-terminal VD
T1 sequence (looked up): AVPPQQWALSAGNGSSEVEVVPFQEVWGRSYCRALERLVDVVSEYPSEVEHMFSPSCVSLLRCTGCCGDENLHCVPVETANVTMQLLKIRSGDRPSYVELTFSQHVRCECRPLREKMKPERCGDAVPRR

PlGF (Placental GF) [3] = target: T1, PlGF (Placental GF); assay: SPR (Biacore); N-terminal VD
[4] = target: T2, placental growth factor (PLGF) (UniProt P49763-2 21-149, limits assumed); assay: ligand-receptor binding competition assay, PlGF binding to VEGFR1; N-terminal VD
T2 construct: also called P1GF
T2 sequence (looked up): T1 sequence (looked up)

[5] = target: T3, DLL4 ECD/His tag (R&D 1506-D4-050) (UniProt Q9NR61 in part); assay: direct bind ELISA, DLL4 on plate; DLL4 VD N-term.; HC Short, LC Short
T3 construct: extracellular domain; Bought antigen coated on the ELISA plate; not shown: His tag

B1: DVD050 (bispecific antibody, human IgG1, kappa)
heavy: EVQLVESGGGLVQPGGSLRLSCAASGFSFSSEPISWVRQAPGKGLEWVSSITGKNGYTYYADSVKGRFTISADTSKNTAYLQMNSLRAEDTAVYYCARWGKKVYGMDVWGQGTLVTVSSASTKGPEVQLVESGGGLVQPGGSLRLSCAASGYTFTNYGMNWVRQAPGKGLEWVGWINTYTGEPTYAADFKRRFTFSLDTSKSTAYLQMNSLRAEDTAVYYCAKYPHYYGSSHWYFDVWGQGTLVTVSS[omitted - human IgG1 constant region]
light: DIQMTQSPSSLSASVGDRVTITCRASQSISSYLAWYQQKPGKAPKLLIYGASSRASGVPSRFSGSGSGTDFTLTISSLQPEDFATYYCQQYMSVPITFGQGTKVEIKRTVAAPDIQMTQSPSSLSASVGDRVTITCSASQDISNYLNWYQQKPGKAPKVLIYFTSSLHSGVPSRFSGSGSGTDFTLTISSLQPEDFATYYCQQYSTVPWTFGQGTKVEIKRTVAAPSVFIFPPSDEQLKSGTASVVCLLNNFYPREAKVQWKVDNALQSGNSQESVTEQDSKDSTYSLSSTLTLSKADYEKHKVYACEVTHQGLSSPVTKSFNRGEC
notes: N-terminal VD NRP1, C-terminal VD VEGF; also called DVD050H; DVD050L
- Kd [1]: 1.44 nM
- koff [1]: 0.000261 s⁻¹
- kon [1]: 182000 M⁻¹ s⁻¹

B2: DVD259 (bispecific antibody, human IgG1, kappa)
heavy: EVQLVESGGGLVQPGGSLRLSCAASGYTFTNYGMNWVRQAPGKGLEWVGWINTYTGEPTYAADFKRRFTFSLDTSKSTAYLQMNSLRAEDTAVYYCAKYPHYYGSSHWYFDVWGQGTLVTVSSASTKGPQVQLQQSGAELVKPGASVKISCKASGYTFTDYYINWVKLAPGQGLEWIGWIYPGSGNTKYNEKFKGKATLTIDTSSSTAYMQLSSLTSEDTAVYFCVRDSPFFDYWGQGTLLTVSS[omitted - human IgG1 constant region]
light: DIQMTQSPSSLSASVGDRVTITCSASQDISNYLNWYQQKPGKAPKVLIYFTSSLHSGVPSRFSGSGSGTDFTLTISSLQPEDFATYYCQQYSTVPWTFGQGTKVEIKRTVAAPDIVLTQSPDSLAVSLGERVTMNCKSSQSLLNSGMRKSFLAWYQQKPGQSPKLLIYWASTRESGVPDRFTGSGSGTDFTLTISSVQAEDVAVYYCKQSYHLFTFGSGTKLEIKRTVAAPSVFIFPPSDEQLKSGTASVVCLLNNFYPREAKVQWKVDNALQSGNSQESVTEQDSKDSTYSLSSTLTLSKADYEKHKVYACEVTHQGLSSPVTKSFNRGEC
notes: N-terminal VD VEGF, C-terminal VD PlGF; also called VD259H; VD259L
- Kd (PlGF (Placental GF) [2]): 0.33 nM
- koff (PlGF (Placental GF) [2]): 9.87e-05 s⁻¹
- kon (PlGF (Placental GF) [2]): 299000 M⁻¹ s⁻¹

B3: DVD260 (bispecific antibody, human IgG1, kappa)
heavy: QVQLQQSGAELVKPGASVKISCKASGYTFTDYYINWVKLAPGQGLEWIGWIYPGSGNTKYNEKFKGKATLTIDTSSSTAYMQLSSLTSEDTAVYFCVRDSPFFDYWGQGTLLTVSSASTKGPEVQLVESGGGLVQPGGSLRLSCAASGYTFTNYGMNWVRQAPGKGLEWVGWINTYTGEPTYAADFKRRFTFSLDTSKSTAYLQMNSLRAEDTAVYYCAKYPHYYGSSHWYFDVWGQGTLVTVSS[omitted - human IgG1 constant region]
light: DIVLTQSPDSLAVSLGERVTMNCKSSQSLLNSGMRKSFLAWYQQKPGQSPKLLIYWASTRESGVPDRFTGSGSGTDFTLTISSVQAEDVAVYYCKQSYHLFTFGSGTKLEIKRTVAAPDIQMTQSPSSLSASVGDRVTITCSASQDISNYLNWYQQKPGKAPKVLIYFTSSLHSGVPSRFSGSGSGTDFTLTISSLQPEDFATYYCQQYSTVPWTFGQGTKVEIKRTVAAPSVFIFPPSDEQLKSGTASVVCLLNNFYPREAKVQWKVDNALQSGNSQESVTEQDSKDSTYSLSSTLTLSKADYEKHKVYACEVTHQGLSSPVTKSFNRGEC
notes: N-terminal VD PlGF, C-terminal VD VEGF; also called VD260H; VD260L
- Kd (PlGF (Placental GF) [3]): 0.012 nM
- koff (PlGF (Placental GF) [3]): 5.14e-05 s⁻¹
- kon (PlGF (Placental GF) [3]): 4.27e+06 M⁻¹ s⁻¹

B4: DVD579 (bispecific antibody, human IgG1, kappa)
heavy: QVQLQQSGAELVKPGASVKISCKASGYTFTDYYINWVKLAPGQGLEWIGWIYPGSGNTKYNEKFKGKATLTIDTSSSTAYMQLSSLTSEDTAVYFCVRDSPFFDYWGQGTLLTVSSASTKGPSVFPLAPEVQLVESGGGLVQPGGSLRLSCAASGYTFTNYGMNWVRQAPGKGLEWVGWINTYTGEPTYAADFKRRFTFSLDTSKSTAYLQMNSLRAEDTAVYYCAKYPHYYGSSHWYFDVWGQGTLVTVSS[omitted - human IgG1 constant region]
light: DIVLTQSPDSLAVSLGERVTMNCKSSQSLLNSGMRKSFLAWYQQKPGQSPKLLIYWASTRESGVPDRFTGSGSGTDFTLTISSVQAEDVAVYYCKQSYHLFTFGSGTKLEIKRTVAAPSVFIFPPDIQMTQSPSSLSASVGDRVTITCSASQDISNYLNWYQQKPGKAPKVLIYFTSSLHSGVPSRFSGSGSGTDFTLTISSLQPEDFATYYCQQYSTVPWTFGQGTKVEIKRTVAAPSVFIFPPSDEQLKSGTASVVCLLNNFYPREAKVQWKVDNALQSGNSQESVTEQDSKDSTYSLSSTLTLSKADYEKHKVYACEVTHQGLSSPVTKSFNRGEC
notes: also called DVD579H; DVD579L
- IC50 [4]: 5.84 nM

B5: DVD587 (bispecific antibody, human IgG1, kappa)
heavy: B4 heavy
light: B3 light
notes: also called DVD587VH; DVD587VL
- IC50 [4]: 3.65 nM

B6: DVD595 (bispecific antibody, human IgG1, kappa)
heavy: B3 heavy
light: B4 light
notes: also called DVD595VH; DVD595VL
- IC50 [4]: 3.65 nM

B7: DVD044 (bispecific antibody, human IgG1, kappa)
heavy: EVQLVESGGGLVQPGGSLRLSCAASGFTFTDNWISWVRQAPGKGLEWVGYISPNSGFTYYADSVKGRFTISADTSKNTAYLQMNSLRAEDTAVYYCARDNFGGYFDYWGQGTLVTVSSASTKGPEVQLVESGGGLVQPGGSLRLSCAASGYTFTNYGMNWVRQAPGKGLEWVGWINTYTGEPTYAADFKRRFTFSLDTSKSTAYLQMNSLRAEDTAVYYCAKYPHYYGSSHWYFDVWGQGTLVTVSS[omitted - human IgG1 constant region]
light: DIQMTQSPSSLSASVGDRVTITCRASQDVSTAVAWYQQKPGKAPKLLIYSASFLYSGVPSRFSGSGSGTDFTLTISSLQPEDFATTYYCQQSYTGTVTFGQGTKVEIKRTVAAPDIQMTQSPSSLSASVGDRVTITCSASQDISNYLNWYQQKPGKAPKVLIYFTSSLHSGVPSRFSGSGSGTDFTLTISSLQPEDFATYYCQQYSTVPWTFGQGTKVEIKRTVAAPSVFIFPPSDEQLKSGTASVVCLLNNFYPREAKVQWKVDNALQSGNSQESVTEQDSKDSTYSLSSTLTLSKADYEKHKVYACEVTHQGLSSPVTKSFNRGEC
notes: DVD-Ig; HC short, LC short linker; also called DVD044H; DVD044L
- EC50 [5]: 0.25 nM

B8: DVD511 (bispecific antibody, human IgG1, kappa)
heavy: EVQLQQSGPELEKPGASVKISCKASGYSFTGYNMNWVKQSNGKSLEWIGNIDPYFGGTNYNQKFKGKATLTVDKSSSTAYMQLKSLTSEDSAVYYCARNYDYDGGCFDYWGQGTTLTVSSASTKGPEVQLVESGGGLVQPGGSLRLSCAASGYTFTNYGMNWVRQAPGKGLEWVGWINTYTGEPTYAADFKRRFTFSLDTSKSTAYLQMNSLRAEDTAVYYCAKYPHYYGSSHWYFDVWGQGTLVTVSS[omitted - human IgG1 constant region]
light: QAVVTQESALTTSPGETVTLTCRSSTGAVTTSNYANWVQEKPDHLFTGLIGGTNNRAPGVPARFSGSLIGDKAALTITGAQTEDEAIYFCALWYSNHWVFGGGTKLTVLGQPKAAPDIQMTQSPSSLSASVGDRVTITCSASQDISNYLNWYQQKPGKAPKVLIYFTSSLHSGVPSRFSGSGSGTDFTLTISSLQPEDFATYYCQQYSTVPWTFGQGTKVEIKRTVAAPSVFIFPPSDEQLKSGTASVVCLLNNFYPREAKVQWKVDNALQSGNSQESVTEQDSKDSTYSLSSTLTLSKADYEKHKVYACEVTHQGLSSPVTKSFNRGEC
notes: DVD-Ig; HC short, LC short linker; also called DVD511H; DVD511L
- EC50 [5]: 0.1 nM

B9: DVD487 (bispecific antibody, human IgG1, kappa)
heavy: EVQLQQSGPELVKPGASVKMSCKASGYTFTSYVINWVKQKPGQGLEWIGLINPYNDGTKYNEKFKVKATLTSDKSSSTAYMELSSLTSEDSAVYYCASYYYGSRYYFDYWGQGTTLTVSSASTKGPEVQLVESGGGLVQPGGSLRLSCAASGYTFTNYGMNWVRQAPGKGLEWVGWINTYTGEPTYAADFKRRFTFSLDTSKSTAYLQMNSLRAEDTAVYYCAKYPHYYGSSHWYFDVWGQGTLVTVSS[omitted - human IgG1 constant region]
light: DIQMTQSSSYLSVSLGGRVTITCKASDHINNWLAWYQQKPGNAPRLLISGATSLETGVPSRFSGSGSGKDYTLSITSLQTEDVATYYCQQYWSIPLTFGAGTKLELKRTVAAPDIQMTQSPSSLSASVGDRVTITCSASQDISNYLNWYQQKPGKAPKVLIYFTSSLHSGVPSRFSGSGSGTDFTLTISSLQPEDFATYYCQQYSTVPWTFGQGTKVEIKRTVAAPSVFIFPPSDEQLKSGTASVVCLLNNFYPREAKVQWKVDNALQSGNSQESVTEQDSKDSTYSLSSTLTLSKADYEKHKVYACEVTHQGLSSPVTKSFNRGEC
notes: DVD-Ig; HC short, LC short linker; also called DVD487H; DVD487L
- EC50 [5]: 0.14 nM
